Assay results published in PubChem BioAssay (NCATS).
Inconclusive means that the source gave no clear call. Such entries were picked first, then a sample of the others. For some assays here: No potency is given beside an inconclusive call; the fits are too rough. Active and inactive are the calls of the source. Unless noted, the call rests on the fitted dose curve; in most records, active means well fitted curve in the direction sought with a large enough effect; inconclusive means small, poorly fitted or top-dose-only effect, or another doubt; inactive means no such curve, though single readings can be large; an effect the other way counts as inactive or inconclusive.

How the values were obtained:
[1] = target: Cytochrome P450 2D6 (Homo sapiens) (UniProt P10635); test: Cytochrome P450 family 2 subfamily D member 6 (CYP2D6) small molecule antagonists: luciferase biochemical (cell-free) qHTS assay (AID 1645840; active means well fitted curve in the direction sought with a large enough effect in the repeat runs; inconclusive means weak or mixed curves; inactive means no such curve, though single readings can be large; an effect the other way counts as inactive or inconclusive; further: potency means the concentration at half of the fitted maximal effect; nearly all actives have a fitted effect of over 55% in size)
UniProt P10635, sequence (P10635 whole entry, looked up): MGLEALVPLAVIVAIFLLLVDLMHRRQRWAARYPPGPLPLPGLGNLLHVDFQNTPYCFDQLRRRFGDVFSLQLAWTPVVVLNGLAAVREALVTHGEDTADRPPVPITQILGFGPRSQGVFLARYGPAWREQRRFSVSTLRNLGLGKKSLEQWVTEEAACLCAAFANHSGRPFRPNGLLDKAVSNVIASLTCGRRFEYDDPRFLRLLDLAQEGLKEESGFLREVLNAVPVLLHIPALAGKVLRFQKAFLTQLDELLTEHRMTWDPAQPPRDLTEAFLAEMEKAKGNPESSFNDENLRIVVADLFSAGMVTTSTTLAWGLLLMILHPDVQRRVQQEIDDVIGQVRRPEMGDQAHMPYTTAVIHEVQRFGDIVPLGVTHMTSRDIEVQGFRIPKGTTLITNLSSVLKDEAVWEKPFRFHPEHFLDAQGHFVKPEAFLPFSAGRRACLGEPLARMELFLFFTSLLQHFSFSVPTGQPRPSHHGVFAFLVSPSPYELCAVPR
Procedure, shortened: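 P450-Glo luminescent screen: recombinant CYP2D6 enzyme–proluciferin substrate mix preincubated with compound 10 min at room temperature, then NADPH regeneration added for 1 h at room temperature. Detection reagent added for 20 min; luciferin light read as relative luminescence units.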

[2] = target: Cytochrome P450 3A4 (Homo sapiens) (UniProt P08684); test: Cytochrome P450 family 3 subfamily A member 4 (CYP3A4) small molecule antagonists: luciferase qHTS assay (AID 1645841; active means well fitted curve in the direction sought with a large enough effect in the repeat runs; inconclusive means weak or mixed curves; inactive means no such curve, though single readings can be large; an effect the other way counts as inactive or inconclusive; further: potency means the concentration at half of the fitted maximal effect; nearly all actives have a fitted effect of over 45% in size)
UniProt P08684, sequence (P08684 whole entry, looked up): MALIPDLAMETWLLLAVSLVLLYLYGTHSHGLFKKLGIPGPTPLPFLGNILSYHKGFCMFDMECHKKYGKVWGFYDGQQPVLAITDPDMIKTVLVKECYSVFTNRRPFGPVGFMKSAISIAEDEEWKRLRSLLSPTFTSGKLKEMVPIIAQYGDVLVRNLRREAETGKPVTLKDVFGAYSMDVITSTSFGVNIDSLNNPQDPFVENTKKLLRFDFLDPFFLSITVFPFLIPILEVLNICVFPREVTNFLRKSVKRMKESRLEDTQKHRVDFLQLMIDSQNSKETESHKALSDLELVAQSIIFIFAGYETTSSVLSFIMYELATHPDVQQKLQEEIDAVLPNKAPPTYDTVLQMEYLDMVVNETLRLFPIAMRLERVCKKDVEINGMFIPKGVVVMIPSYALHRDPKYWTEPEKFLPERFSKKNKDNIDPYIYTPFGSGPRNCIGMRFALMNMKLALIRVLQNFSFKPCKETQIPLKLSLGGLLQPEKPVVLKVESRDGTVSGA
Procedure, shortened: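 P450-Glo CYP3A4 enzyme with proluciferin substrate was preincubated with DMSO-dissolved compounds for 10 min at room temperature. NADPH regeneration solution started a 1 h reaction. Detection reagent stopped it, and luminescence was read after 20 min.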

[3] = Primary fluorescence-based thiol-reactive (MSTI) qHTS assay for identification of artifact compounds. (AID 1845221);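 further: thiol-reactive compounds lower the probe fluorescence signal; nearly all actives have a fitted effect of over 65% in size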
Procedure, shortened: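 One-hour, room-temperature, dark incubation of compound with 4 uM MSTI in PBS (pH 7.4, 2% DMSO) precedes a fluorescence read at 525 nm excitation, 598 nm emission; Hill-equation fitting yields concentration-response values.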

HEK293 = test: Cytotoxic Profiling of Annotated Libraries Using Quantitative High-Throughput Screening (AID 1296008); conditions: Five cell lines viability, CellTiter-Glo ATP luminescence, 48-72 h; max response: hits give low values; further: nearly all actives have a fitted effect of over 60% in size; further: potency means the concentration at half of the fitted maximal effect; on max response: on the % scale 0 is the no-effect control and ±100 the full control effect
Procedure, shortened: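 Compounds were pin-transferred onto cells and incubated 48 or 72 hr at 37 degree Celsius, 95% humidity. CellTiter-Glo was added, plates sat 10 min at room temperature, then ATP-coupled luminescence was imaged as the viability read-out.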

Es-2 = test: Primary qHTS to identify gynecologic anti-cancer compounds using libraries of approved drugs and bioactive compounds (AID 1345084); conditions: Gynecologic cancer cell panel viability, ATPlite luminescence, 48 h; series mostly up to 57.5 µM; further: nearly all actives have a fitted effect of over 55% in size; further: potency means the concentration at half of the fitted maximal effect; on activity change, negative = cytotoxicity: on the % scale 0 is the no-effect control and ±100 the full control effect
Procedure, shortened: (§1)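 In this quantitative HTS, cell killing is estimated from loss of ATP-dependent luciferase light. Cells see five compound concentrations over a 48 h exposure.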

SKOV3 = test: as above; conditions: Gynecologic cancer cell panel viability, ATPlite luminescence, 48 h; series mostly up to 57.5 µM
Procedure, shortened: as §1

[4] = test system: Zika virus NS2B-NS3 protease (linked construct); test: Primary screen NINDS Rhodamine qHTS for Zika virus inhibitors (AID 1347160); conditions: activity change, negative = inhibition: at 57.1 µM (top of the series) unless noted
Procedure, shortened: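 Purified linked NS2B-NS3 protease (NS2B hydrophilic domain joined to NS3 protease by flexible linker), 25 nM in 10 mM Tris-HCl pH 8.0, 0.01% Tween 20. Compounds titrated, 15 min preincubation at room temperature; 1.5 microM Rhodamine110 substrate, FITC fluorescence change over 15 min.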

[5] = Primary qHTS for inhibitors of nuclear receptor binding SET domain protein 2 (NSD2) in an isogenic RCH-ACV NSD2 p.E1099K mutant (9B) (AID 1645876); further: potency means the concentration at half of the fitted maximal effect; nearly all actives have a fitted effect of over 70% in size
[6] = Primary qHTS for inhibitors of nuclear receptor binding SET domain protein 2 (NSD2) in an RCH-ACV wild type WT cells (2C) (AID 1645877); conditions: activity change, negative = cell killing: at 44.9 µM (top of the series) unless noted; further: nearly all actives have a fitted effect of over 70% in size; further: potency means the concentration at half of the fitted maximal effect
Hek293T = test: Primary qHTS to identify gynecologic anti-cancer compounds using libraries of approved drugs and bioactive compounds (AID 1345084); conditions: Gynecologic cancer cell panel viability, ATPlite luminescence, 48 h, control line for the selectivity index; activity change, negative = cytotoxicity: at 57.5 µM (top of the series) unless noted; further: nearly all actives have a fitted effect of over 55% in size; further: potency means the concentration at half of the fitted maximal effect; on activity change, negative = cytotoxicity: on the % scale 0 is the no-effect control and ±100 the full control effect
Procedure, shortened: as §1

Tov112D = test: as above; conditions: Gynecologic cancer cell panel viability, ATPlite luminescence, 48 h; series mostly up to 57.5 µM
Procedure, shortened: as §1

[7] = Primary redox qHTS assay for identification of artifact compounds. (AID 1845223); conditions: Amplex Red/HRP redox cycling with DTT, fluorescence; redox activity (% of DA3003): at 53.8 µM (top of the series);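 further: 0% = DMSO and 100% = reference compound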
Procedure, shortened: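 Amplex Red (25 uM) and HRP (250 mU/mL) in HBSS, with compounds for 15 min, then 250 uM DTT for 30 min, room temperature, dark. Fluorescence 525/598 nm read; normalized to DMSO and 10 uM DA3003; Hill fit.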

[8] = P-glycoprotein substrates identified in KB-8-5-11 adenocarcinoma cell line, qHTS therapeutic library screen (AID 1346987); further: on the % scale 0 is the no-effect control and ±100 the full control effect; nearly all actives have a fitted effect of over 65% in size
Procedure, shortened: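 KB-8-5-11, a colchicine-selected P-gp-overexpressing KB-3-1 subline, was grown without colchicine for the assay. Cells were seeded at 500 cells/well, dosed in concentration-response and incubated 72 h at 37 degree C, 5% CO2. Viability was read by CellTiter-Glo luminescence.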

HeLa = test: Primary qHTS to identify gynecologic anti-cancer compounds using libraries of approved drugs and bioactive compounds (AID 1345084); conditions: Gynecologic cancer cell panel viability, ATPlite luminescence, 48 h; activity change, negative = cytotoxicity: at 57.5 µM (top of the series); further: nearly all actives have a fitted effect of over 55% in size; further: potency means the concentration at half of the fitted maximal effect; on activity change, negative = cytotoxicity: on the % scale 0 is the no-effect control and ±100 the full control effect
Procedure, shortened: as §1

OV90 = test: as above; conditions: Gynecologic cancer cell panel viability, ATPlite luminescence, 48 h; series mostly up to 57.5 µM
Procedure, shortened: as §1

[9] = qHTS of pediatric cancer cell lines to identify multiple opportunities for drug repurposing: Primary screen for Saos-2 cells (AID 1347097); further: potency means the concentration at half of the fitted maximal effect; nearly all actives have a fitted effect of over 40% in size
Procedure, shortened: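 Cells seeded at 500-1,000 cells/well in growth media, rested 5 hours at 37 degrees C, 5% CO2, then dosed; MIPE compounds at 11-point (from 0.78 nM) and NPC at 8-point (from 0.59 nM) final concentrations. Viability by CellTiter-Glo luminescence after 48 hours.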

[10] = qHTS of pediatric cancer cell lines to identify multiple opportunities for drug repurposing: Primary screen for LAN-5 cells (AID 1347100);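 further: plate controls were DMSO neutral control for no effect and bortezomib positive control for full effect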
Procedure, shortened: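 Cells (500-1,000/well) in growth media were settled 5 h at 37 degrees C, then given compounds for 48 h. Viability was read as CellTiter-Glo luminescence. Primary runs used MIPE at 11 points (0.78 nM-46 µM) and NPC at 8 points (0.59 nM-46 µM); follow-ups used 11 points.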

[11] = A High-Content qHTS Against Drug Library for the Identification of Small Molecules that Inhibit DYT1 Early Onset Primary Dystonia-Associated Cell Pathology (AID 1645839; calls by dose curve)
Procedure, shortened: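 Readout: %pathology, the punctate EGFP-TorsinA distribution from imaging, as the primary channel and cell count as the toxicity counterscreen. HEK293 Flp-In cells expressing delE TorsinA were induced with tetracycline and treated with compound for 48 h.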

CP201 = test: qHTS profiling for inhibitors of Plasmodium falciparum proliferation (AID 504749);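 further: 0% = DMSO vehicle and full inhibition = artemisinin control; nearly all actives have a fitted effect of over 60% in size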; conditions: P. falciparum in erythrocytes, SYBR Green DNA, 72 h; series mostly up to 28.7 µM
Procedure, shortened: (§2)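 Parasite proliferation within erythrocytes, 72 h exposure. Endpoint: SYBR Green I fluorescence after overnight lysis at room temperature. Controls: 0.29 uM artemisinin, DMSO.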

CP325 = test: as above; conditions: P. falciparum in erythrocytes, SYBR Green DNA, 72 h; series mostly up to 28.7 µM
Procedure, shortened: as §2

CP335 = test: as above; conditions: P. falciparum in erythrocytes, SYBR Green DNA, 72 h; series mostly up to 28.7 µM
Procedure, shortened: as §2

ECU = test: as above; conditions: P. falciparum in erythrocytes, SYBR Green DNA, 72 h; series mostly up to 28.7 µM
Procedure, shortened: as §2

ICS = test: as above; conditions: P. falciparum in erythrocytes, SYBR Green DNA, 72 h; series mostly up to 28.7 µM
Procedure, shortened: as §2

PC26 = test: as above; conditions: P. falciparum in erythrocytes, SYBR Green DNA, 72 h; series mostly up to 28.7 µM
Procedure, shortened: as §2

[12] = Drug repurposing screens with cells derived from glioblastoma tumor samples (AID 1345199); conditions: GBM patient neurospheres viability, ATP luminescence, 48 h; Potency: tumour line A unless noted; activity, negative = cell killing: at 46 µM (top of the series), tumour line A unless noted; further: on the % scale 0 is the no-effect control and ±100 the full control effect; nearly all actives have a fitted effect of over 40% in size
Procedure, shortened: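 Four patient lines of CD133+ GBM neurospheres were screened at several concentrations; hits were retested in those lines plus three slower-growing GBM lines, using 48-hour treatment and ATP-based viability.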

[13] = target: Cytochrome P450 2C9 (Homo sapiens) (UniProt P11712); test: Cytochrome P450 family 2 subfamily C member 9 (CYP2C9) small molecule antagonists: luciferase biochemical (cell-free) qHTS assay (AID 1645842; active means well fitted curve in the direction sought with a large enough effect in the repeat runs; inconclusive means weak or mixed curves; inactive means no such curve, though single readings can be large; an effect the other way counts as inactive or inconclusive)
UniProt P11712, sequence (P11712 whole entry, looked up): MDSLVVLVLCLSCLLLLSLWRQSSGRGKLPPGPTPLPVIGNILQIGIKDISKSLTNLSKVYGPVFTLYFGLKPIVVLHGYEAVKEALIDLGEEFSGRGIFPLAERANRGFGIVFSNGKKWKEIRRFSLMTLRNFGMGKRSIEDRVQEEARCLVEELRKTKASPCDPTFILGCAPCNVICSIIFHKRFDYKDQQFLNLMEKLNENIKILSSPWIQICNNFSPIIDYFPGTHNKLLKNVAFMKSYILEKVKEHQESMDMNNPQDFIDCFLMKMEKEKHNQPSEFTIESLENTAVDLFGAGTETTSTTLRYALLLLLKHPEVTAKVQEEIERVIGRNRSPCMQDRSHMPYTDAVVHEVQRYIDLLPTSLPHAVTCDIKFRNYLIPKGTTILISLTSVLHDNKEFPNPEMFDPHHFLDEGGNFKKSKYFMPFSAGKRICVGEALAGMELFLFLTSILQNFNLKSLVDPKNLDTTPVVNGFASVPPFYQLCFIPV
Procedure, shortened: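 Luminescence, after 20 min with luciferin detection reagent, reflected CYP2C9 turnover during a 1 h NADPH-driven reaction at 37C. Enzyme-substrate mix contained 0.4% bovine serum albumin and was preincubated with compound 10 min at room temperature.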

PA-1 = test: Primary qHTS to identify gynecologic anti-cancer compounds using libraries of approved drugs and bioactive compounds (AID 1345084); conditions: Gynecologic cancer cell panel viability, ATPlite luminescence, 48 h; series mostly up to 57.5 µM; further: nearly all actives have a fitted effect of over 55% in size; further: potency means the concentration at half of the fitted maximal effect
Procedure, shortened: as §1
Tags describe the fitted curve by direction and shape.

In the case of Cc1ccc(-c2c(-c3nn(C)c4ncnc(N5CCC(N6CCCCC6)C5)c34)cnn2C)cc1 (centres undefined), the Potency [1] is reported as inconclusive [inhibitor, single point], the Potency [2] is reported as active: 0.12 µM and the Potency [3] is reported as “inactive”. The max response (HEK293) was inactive: -1.32%, the Potency (Es-2) was “inactive” and the Potency (SKOV3) was inconclusive [rising, partial curve, poor fit].
For COC1CC(=O)C23C(=O)NC(CC(C)C)C2C(C)C(C)=CC3/C=C(\C)CCC1O (centres undefined), the Potency [4] was “inactive”, the Potency [5] was inconclusive [inhibitor, single point] and the Potency [6] was inconclusive [inhibitor, single point]. The outcome (HEK293) was “inactive”, the Potency (Es-2) was “inactive” and the Potency (Hek293T) was inconclusive [rising, partial curve]. For the same molecule, the Potency (Tov112D) was “inactive”.
With C=C1C(OC(C)=O)C(=O)C2C(C)(C)C(O)CCC2(C)C1CC(OC(C)=O)/C(C)=C/COC(C)=O (centres undefined) the Potency [6] was inconclusive [inhibitor, partial curve, poor fit], the Potency [7] was “inactive” and the max response (HEK293) was inactive: -10.7%. The Potency (Es-2) was “inactive”.
With COc1cc([C@H]2OC[C@](O)(Cc3ccc(O[C@@H]4O[C@H](CO)[C@@H](O)[C@H](O)[C@H]4O)c(OC)c3)[C@@H]2CO)ccc1O the Potency [8] was “inactive”, the max response (HEK293) was inactive: 1.25% and the Potency (HeLa) was “inactive”. The Potency (OV90) was “inactive” and the Potency (Tov112D) was “inactive”.
For CC(C(=O)O)c1ccc2c(c1)Cc1cccnc1O2 (centres undefined), the Potency [9] was inconclusive [cytotoxic, single point], the Potency [10] was “inactive” and the Potency [11] was “inactive”. For the same molecule, the Potency [6] was “inactive”, the Potency (CP201) was “inactive” and the Potency (CP325) was “inactive”. The Potency (CP335) was “inactive”, the Potency (ECU) was “inactive” and the Potency (ICS) was “inactive”. The Potency (PC26) was “inactive”, the outcome (HEK293) was “inactive” and the Potency (Es-2) was “inactive”. The Potency [12] was “inactive”.
With COc1ccccc1-c1ccc(-c2cn(C(=O)N3CCCCC3Cc3ccccc3)nn2)cc1 (centres undefined) the Potency [2] was inconclusive [falling, single point], the Potency [13] was inconclusive [inhibitor, full curve] and the Potency [5] was inconclusive [inhibitor, single point]. For the same molecule, the Potency (HEK293) was inconclusive [inhibitor, single point], the Potency (HeLa) was inconclusive [cytotoxic, single point] and the Potency (Hek293T) was inconclusive [cytotoxic, single point]. The Potency (OV90) was inconclusive [cytotoxic, single point], the Potency (PA-1) was inconclusive [cytotoxic, single point] and the Potency (SKOV3) was “inactive”.
